Reference: the supplement of paper PMC4967469

Compound: CCCCCCCCCCCC1=C(O)C(=O)C=C(O)C1=O [Embelin]
Assay: Viability of human cancer cell lines after 72 h of drug (GDSC screen)
Conditions: top dose 32 µM; top dose inferred
Method: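 Human cancer cell lines in 384-well plates, medium with 10% serum, drug for 72 h over a 256-fold dose range (nine 2-fold or five 4-fold steps up to the top dose). Adherent lines were fixed and stained with the nucleic acid dye Syto60, suspension lines read with resazurin; signal relative to control wells, capped at 0 and 100%. One two-parameter sigmoid per drug and line, fitted in a mixed model over all curves with the slope shared within a line.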

Cell Line | AUC | IC50 [µM]
NCI-H2029 (small cell lung carcinoma, adherent) | 0.95 | > 32
NCI-H2030 (lung adenocarcinoma, adherent) | 0.785 | 15.8
NCI-H2052 (mesothelioma, adherent) | 0.728 | 10.9
NCI-H2081 (small cell lung carcinoma, suspension) | 0.941 | > 32
NCI-H2085 (lung adenocarcinoma, adherent) | 0.719 | 8.88
NCI-H2087 (lung adenocarcinoma, semi-adherent) | 0.669 | 6.15
NCI-H2110 (non-small cell lung carcinoma, adherent) | 0.79 | 14.7
NCI-H2122 (lung adenocarcinoma, adherent) | 0.605 | 3.81
NCI-H2135 (non-small cell lung carcinoma, adherent) | 0.91 | > 32
NCI-H2141 (small cell lung carcinoma, suspension) | 0.867 | 27.4
NCI-H2170 (lung squamous cell carcinoma, adherent) | 0.723 | 8.89
NCI-H2171 (small cell lung carcinoma, suspension) | 0.965 | > 32
NCI-H2172 (non-small cell lung carcinoma, adherent) | 0.721 | 10.8
NCI-H2196 (small cell lung carcinoma, adherent) | 0.96 | > 32
NCI-H2227 (small cell lung carcinoma, semi-adherent) | 0.984 | > 32
NCI-H2228 (lung adenocarcinoma, adherent) | 0.845 | > 32
NCI-H2291 (lung adenocarcinoma, adherent) | 0.961 | > 32
NCI-H2342 (lung adenocarcinoma, adherent) | 0.689 | 7.21
NCI-H2347 (lung adenocarcinoma, adherent) | 0.715 | 9.36
NCI-H2405 (lung adenocarcinoma, adherent) | 0.696 | 7.58
NCI-H2444 (non-small cell lung carcinoma, adherent) | 0.935 | > 32
NCI-H2452 (mesothelioma, adherent) | 0.943 | > 32
NCI-H3122 (lung adenocarcinoma, adherent) | 0.781 | 13.7
NCI-SNU-1 (stomach, suspension) | 0.896 | > 32
NCI-SNU-5 (stomach, suspension) | 0.927 | > 32
NCI-SNU-16 (stomach, suspension) | 0.991 | > 32

Cell Line | AUC | IC50 [µM]
NEC8 (testis, adherent) | 0.681 | 5.87
NH-12 (neuroblastoma, adherent) | 0.607 | 4.09
NK-92MI (lymphoid neoplasm, suspension) | 0.725 | 8.26
NKM-1 (acute myeloid leukaemia, suspension) | 0.945 | > 32
NMC-G1 (glioma, adherent) | 0.683 | 7.34
NOMO-1 (acute myeloid leukaemia, suspension) | 0.752 | 11.9
NOS-1 (osteosarcoma, adherent) | 0.641 | 5.41
NTERA-2 cl.D1 (testis, adherent) | 0.396 | 1.04
NU-DUL-1 (B-cell lymphoma, suspension) | 0.625 | 4.1
NUGC-3 (stomach, adherent) | 0.75 | 11.6
NUGC-4 (stomach, adherent) | 0.832 | 20.5
NY (osteosarcoma, adherent) | 0.66 | 5.52
OAW-28 (ovary, adherent) | 0.794 | 19.3
OAW-42 (ovary, adherent) | 0.789 | 15.4
OCI-AML2 (acute myeloid leukaemia, suspension) | 0.684 | 5.64
OCI-AML3 (acute myeloid leukaemia, suspension) | 0.922 | > 32
OCI-AML5 (acute myeloid leukaemia, suspension) | 0.97 | > 32
OCI-LY-19 (B-cell lymphoma, suspension) | 0.71 | 7.42
OCI-M1 (acute myeloid leukaemia, suspension) | 0.986 | > 32
OCUB-M (breast, adherent) | 0.671 | 5.57
OCUM-1 (stomach, adherent) | 0.678 | 6.65
OE19 (oesophagus, adherent) | 0.885 | > 32
OE21 (oesophagus, adherent) | 0.631 | 5.27
OE33 (oesophagus, adherent) | 0.794 | 18
OMC-1 (cervix, adherent) | 0.761 | 11.8
ONS-76 (medulloblastoma, adherent) | 0.71 | 8.28

Cell Line | AUC | IC50 [µM]
OPM-2 (myeloma, suspension) | 0.94 | > 32
OS-RC-2 (kidney, adherent) | 0.714 | 10.7
OSC-19 (head and neck, adherent) | 0.854 | 26.9
OSC-20 (head and neck, adherent) | 0.684 | 7.29
OV-90 (ovary, adherent) | 0.591 | 3.81
OVCAR-3 (ovary, adherent) | 0.764 | 12.8
OVCAR-4 (ovary, adherent) | 0.763 | 17.4
OVCAR-5 (ovary, adherent) | 0.943 | > 32
OVCAR-8 (ovary, adherent) | 0.767 | 10.7
OVISE (ovary, adherent) | 0.917 | > 32
OVKATE (ovary, adherent) | 0.835 | > 32
OVMIU (ovary, adherent) | 0.78 | 16.7
OVTOKO (ovary, adherent) | 0.845 | > 32
P12-ICHIKAWA (T-cell lymphoblastic leukaemia, suspension) | 0.742 | 8.04
P30-OHK (lymphoblastic leukaemia, suspension) | 0.663 | 5.22
P31-FUJ (acute myeloid leukaemia, suspension) | 0.977 | > 32
P32-ISH (Burkitt lymphoma, suspension) | 0.62 | 3.92
PA-1 (ovary, adherent) | 0.595 | 3.43
PA-TU-8902 (pancreas, adherent) | 0.778 | 15.2
PA-TU-8988T (pancreas, adherent) | 0.621 | 4.33
PANC-02-03 (pancreas, adherent) | 0.861 | > 32
PANC-03-27 (pancreas, adherent) | 0.765 | 11
PANC-04-03 (pancreas, adherent) | 0.772 | 20.9
PANC-08-13 (pancreas, adherent) | 0.944 | > 32
PANC-10-05 (pancreas, adherent) | 0.795 | 19.8

A lower IC50 marks a more sensitive line; fits outside the tested doses are given as limits. AUC is the area under the same curve over the 256-fold range up to the top dose, as a fraction; values near 1 show little effect. An inferred top dose comes from the curve model; the source does not state it.
